According to PubChem BioAssay AID686979 (National Center for Advancing Translational Sciences (NCATS), 2013):
The campaign covered roughly 420,000 compounds. About 50,000 (12%) were called active. The shares of active, inactive and inconclusive entries below differ from those in the screen. Calls follow the shape of the dose curve; as a rule, active = well fitted inhibition curve with a large enough effect; inconclusive = small, poorly fitted or top-dose-only effect; inactive = flat fitted curve, though single readings scatter. No potency is given beside an inconclusive call; the fits are too rough.

Experiment: qHTS for Inhibitors of human tyrosyl-DNA phosphodiesterase 1 (TDP1): qHTS in cells in presence of CPT; also: nearly all actives have a fitted effect of over 55% in size
Settings: chicken DT40 Tdp1-/-;hTDP1 cells + 20 nM CPT, ATP luminescence, 48 h; activity change, negative = growth inhibition: at 46.2 µM (top of the series) unless noted
Summary of the method: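 Chicken DT40 Tdp1-/- cells complemented with human TDP1, 400 cells/well, exposed to compounds plus 20 nM camptothecin for at least 48 h at 37 C; viability read as ATP content by CellTiter-Glo luminescence.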
% is scaled to controls: 0 for no effect and ±100 for the full control effect; potency is read from the fitted curve at half-maximal effect; tags tell the direction and shape of the fitted curve.

| Compound | activity change, negative = growth inhibition | Potency |
| --- | --- | --- |
| CN(C)c1ccc(C(=C2c3ccccc3-c3ccccc32)c2ccc(N(C)C)cc2)cc1 | inactive: -8.2% |  |
| Cc1cc(C)c(NC(=O)Cn2nnc(-c3nc(-c4ccncc4)no3)c2N)c(C)c1 | inactive: -0.0488% |  |
| CCOC(=O)N1CCC(Nc2c(Nc3cccc(CC)c3)c(=O)c2=O)CC1 |  | inconclusive [inhibitor, partial curve] |
| C/C(=N\NC(=O)c1ccccc1)c1nc2ccccc2n1C | inactive: -35.6% |  |
| C1=C[C@H]2CC[C@@H]1N(c1ccccc1)O2 | inactive: 12.1% |  |
| COc1ccc(-c2csc(-n3ncc(-c4cccs4)c3N)n2)cc1 | inconclusive: -34.3% [inhibitor] |  |
| C(=C\c1sc(Nc2ccccc2)n[n+]1-c1ccccc1)/c1ccccc1 |  | active: 5.17 µM |
| O=C(COC(=O)CC1c2ccccc2CCN1S(=O)(=O)c1ccc(F)cc1)Nc1ccccc1 (configuration not stated) |  | inconclusive [inhibitor, single point] |
| Cc1ccc(Nc2c(-c3ccc(N4CCOCC4)cc3)nc3ccc(Cl)cn23)cc1 | inactive: -20.1% |  |
| CSCCC(NC(=O)c1ccccc1Br)C(=O)N1CCN(C/C=C/c2ccccc2)CC1 (configuration not stated) |  | active: 2.59 µM |
| COC(=O)c1ccc(OC)c(CSc2nnc(COc3ccc(OC)cc3)o2)c1 |  | inconclusive [inhibitor, single point] |
| Cc1cc(C)c([N+](=O)[O-])cc1-c1ccc(/C=N/c2c(-c3ccco3)nc3ccccn23)o1 |  | active: 14.6 µM |
| CSc1nnc(CCCCCCCCc2nnc(SC)o2)o1 |  | inconclusive [inhibitor, single point] |
| O=C(NCC(O)c1ccccc1)c1ccc(Cl)c(S(=O)(=O)N2CCCC2)c1 (configuration not stated) | inactive: -26.3% |  |
| COc1cn(CC(=O)Nc2ccc(C)cc2C)c(CN2CCCCC2)cc1=O | inactive: 12.9% |  |
| FC(F)(F)c1cccc(NC(=S)N(CCCN2CCCC2)Cc2cccn2Cc2ccc(Cl)cc2)c1 |  | inconclusive [inhibitor, single point] |
| COc1cnc(SCc2ccc(Cl)cc2)nc1Cl |  | inconclusive [inhibitor, single point] |
| CSCc1cc(N(C)C)nc(SCc2ccc(Cl)c(Cl)c2)n1 |  | inconclusive [inhibitor, full curve, poor fit] |
| CCOc1ccc(NC(=O)C2CCN(S(=O)(=O)c3ccc4c(c3)CC(C)N4C(C)=O)CC2)cc1 (configuration not stated) |  | inconclusive [inhibitor, single point] |
| c1cnc2ncc3sccc3c2c1 | inactive: -15.8% |  |
| O=C(c1cc(S(=O)(=O)N2CCN(c3ccccc3)CC2)ccc1Cl)N1CCCCCCC1 |  | inconclusive [inhibitor, single point] |
| CC(=O)c1ccc(NC(=O)/C=C/c2ccc(C)o2)cc1 |  | active: 14.6 µM |
| CC1(C)CC(=O)C=C(NCCO)C1 | inactive: -6.69% |  |
| COC(=O)c1ccc(C)c(NS(=O)(=O)c2ccc(OC)c(OC)c2)c1 | inactive: -24.3% |  |

| Compound | activity change, negative = growth inhibition | Potency |
| --- | --- | --- |
| COc1cc(C(=O)OC(COCCC(C)C)CN2CCOCC2)cc(OC)c1OC (configuration not stated) | inactive: 2.99% |  |
| C[C@H]1CN([C@@H](C)CO)C(=O)c2cc(Br)cnc2O[C@@H]1CN(C)S(=O)(=O)c1ccccc1 |  | inconclusive [inhibitor, single point] |
| Nc1ccc(N2CCCC2)c(S(=O)(=O)Nc2cccc(C(F)(F)F)c2)c1 |  | inconclusive [inhibitor, single point] |
| COc1cccc(Cn2cc(-c3cccc(C(F)(F)F)c3)nn2)c1 |  | inconclusive [inhibitor, single point] |
| C[C@]12CCC(=O)C=C1C=CC1C2CC[C@@]2(C)C1CC[C@@]21CCC(=O)O1 (some centres not stated) |  | active: 20.6 µM |
| Cc1ccc(C(O)c2ccncc2)cc1 (configuration not stated) | inconclusive: -36.9% [inhibitor] |  |
| COc1ccc(F)c(CN2CCC(N3CCC(C(=O)N4CCOCC4)CC3)CC2)c1 |  | inconclusive [inhibitor, partial curve, poor fit] |
| O=S(=O)(c1ccccc1)N1CCC[C@@]2(CCN(c3ccccc3)C2)C1 |  | inconclusive [inhibitor, single point] |
| COc1ccc(S(=O)(=O)NCC(c2ccc(N(C)C)cc2)N2CCCC2)cc1F (configuration not stated) |  | inconclusive [inhibitor, single point] |
| Nc1ncnc2c1ncn2[C@@H]1O[C@H](C(=O)NS(=O)(=O)c2ccccc2[N+](=O)[O-])[C@@H](O)[C@H]1O |  | inconclusive [inhibitor, partial curve, poor fit] |
| CC(=O)c1sc(N/N=C/c2cccc(O)c2)nc1C |  | active: 25.9 µM |
| CC(CCc1ccccc1)NS(=O)(=O)c1ccccc1Cl (configuration not stated) |  | inconclusive [inhibitor, single point] |
| CN(C)c1ccc(NC(=O)/C=C/c2ccccc2Cl)cc1 |  | inconclusive [inhibitor, single point] |
| Cc1nc2c(Br)c(C)nn2c2c1CCC2 |  | inconclusive [inhibitor, single point] |
| CC#CCOC(=O)c1c(C)nc2sc3c(c2c1N)CC[C@@H](O)C3 | inactive: -58.7% |  |
| N#CCSc1nnc(-c2ccc(F)cc2)n1N | inactive: 1.54% |  |
| COc1ccc(CCC(C)N(C)Cc2ccccc2)cc1 (configuration not stated) | inactive: -21.4% |  |
| CC1CCCN(C(=O)c2cc3c(-c4ccc(Cl)cc4)nn(C)c3s2)C1 (configuration not stated) |  | inconclusive [inhibitor, single point] |
| Cc1cccc(OCC(=O)NCC2(N3CCN(C)CC3)CCCCC2)c1 |  | inconclusive [inhibitor, single point] |
| O=S(=O)(NC1CCCCC1N1CCN(c2ccccc2F)CC1)c1ccc(Cl)cc1 (configuration not stated) |  | inconclusive [inhibitor, single point] |
| Cc1cc(NC(=O)CSCC(=O)N(C)Cc2c(F)cccc2Cl)no1 | inactive: 0.611% |  |
| Cc1ccccc1Cn1cc(NC(=O)c2cc(-c3ccc(Cl)cc3)on2)cn1 |  | inconclusive [inhibitor, partial curve] |
| COc1cc(C(=O)NC(=S)N(C)Cc2ccccc2)cc(OC)c1OC |  | active: 20.6 µM |
| O=c1cc(N2CCc3ccccc3C2)[nH]c(=O)n1C1CCCCC1 |  | active: 1.84 µM |

| Compound | activity change, negative = growth inhibition | Potency |
| --- | --- | --- |
| O=C(COC(=O)c1ccccc1C(=O)N1CCN(c2ccccc2)CC1)Nc1ccc(F)cc1 |  | inconclusive [inhibitor, single point] |
| CC(C)Oc1cccc(C(=O)NC(=S)Nc2ccccc2)c1 |  | inconclusive [inhibitor, single point] |
| Cc1[nH]c2ccc(C(=O)NCCc3ccccc3Cl)cc2c1C |  | inconclusive [inhibitor, single point] |
| CN1CCN(C(=O)CCN2C(=O)/C(=C\c3ccc(F)cc3)SC2=S)CC1 |  | active: 18.4 µM |
| C/C(=N/NC(=O)c1cccs1)c1ccc(NC(=O)COc2ccc(Cl)cc2)cc1 |  | inconclusive [inhibitor, partial curve] |
| O=S1(=O)CCO[C@H]2Cc3ccccc3[C@H]2N1Cc1ccc(Cl)cc1 |  | inconclusive [inhibitor, single point] |
| COc1cc(C(c2c(NC(=O)c3ccco3)sc(C)c2C)N2CCOCC2)cc(OC)c1OC (configuration not stated) |  | active: 23.1 µM |
| CC(=NO)C1CCC2C3CCC4=CC(=NO)CCC4(C)C3C(=O)CC12C (configuration not stated) |  | active: 13 µM |
| Cc1ccc2c(CC(=O)Nc3cccc(S(=O)(=O)N4CCOCC4)c3)coc2c1 |  | inconclusive [inhibitor, single point] |
| CC1CCCC(NC(=O)CCC(=O)c2ccc(F)cc2)C1C (configuration not stated) |  | inconclusive [inhibitor, single point] |
| CCN(CC)CC(=O)Nc1cc(N(C)C)nc2ccccc12 | inactive: 4.46% |  |
| COc1ccccc1C(=O)CSc1nccn1C |  | inconclusive [inhibitor, single point] |
| CCCCCCOc1ccc(N2C(=O)CC(S/C(N)=N/N=C(\C)c3cccs3)C2=O)cc1 (configuration not stated) | inactive: -14.7% |  |
| Cc1ccc(S(=O)(=O)c2nnn3c2nc(NCc2ccc(F)cc2)c2sccc23)cc1C |  | inconclusive [inhibitor, single point] |
| CC(C)OCCCn1c(=O)c2ccccc2n2c(-c3ccc(F)c(F)c3)nnc12 |  | inconclusive [inhibitor, partial curve] |
| CCNC(=S)NNC(=O)c1ccccn1 |  | active: 20.6 µM |
| N#Cc1ccc(C(=O)Nc2cccc(NC(=O)c3ccco3)c2)c(F)c1 |  | inconclusive [inhibitor, single point] |
| CCCS(=O)(=O)N1CC(=O)N(c2ccccc2C)C(C)(C(=O)NC2CCCCC2)C1 (configuration not stated) | inactive: -13.3% |  |
| Cc1ccc(-c2csc(Cc3nc(-c4ccc5c(c4)CCC(=O)N5)cs3)n2)cc1 |  | inconclusive [inhibitor, single point] |
| Cc1cc(C)cc(C(=O)NC(=S)Nc2ccc3c(c2)OCCO3)c1 |  | active: 16.4 µM |
| CCN1C[C@@H]2[C@@H]3C(=O)N(Cc4ccccc4)C(=O)[C@@H]3[C@](CC)(C1=O)N2C(=O)c1ccc(Br)cc1 |  | inconclusive [inhibitor, single point] |
| CN(C)S(=O)(=O)c1cccc(NC(=S)NCc2ccco2)c1 | inactive: -3.19% |  |
| CCOC(=O)c1nnn(CC(=O)N2N=C(c3ccc(Cl)cc3)CC2c2ccc(OC)cc2)c1C(=O)OCC (configuration not stated) | inconclusive: -39.1% [inhibitor] |  |
| CN(C(=O)c1ccc(NC(=O)Cc2ccc(NC(=O)C3CCN(C(=O)c4ccccc4)CC3)cc2)cc1)C1CCCC1 |  | inconclusive [inhibitor, single point] |
